# Test results published in PubChem BioAssay (NCATS).
# “And” between values parts separate entries of the source, which are not always exact repeats. Equal entries are not always repeated. Inconclusive means that the source gave no clear call. Such entries were picked first, then a sample of the others. For part of these data: A potency beside an inconclusive call is a rough fit, not a confirmed value. The source made the active and inactive calls. Calls come from the whole dose curve; as a rule, active = well fitted curve in the direction sought with a large enough effect; inconclusive = small, poorly fitted or top-dose-only effect, or another doubt; inactive = no such curve, though single readings can be large; an effect the other way counts as inactive or inconclusive.
# Experiments:
# [1] = molecular target: Cytochrome P450 3A7 (Homo sapiens) (UniProt P24462); assay: Cytochrome P450 family 3 subfamily A member 7 (CYP3A7) small molecule antagonists: luciferase biochemical qHTS assay (AID 1963596); settings: P450-Glo CYP3A7 enzyme luminescence, 1 h; series mostly up to 57.4 µM; note: nearly all actives have a fitted effect of over 40% in size; note: potency is the fitted concentration of half-maximal effect
# Chain of UniProt P24462 (P24462 whole entry, looked up): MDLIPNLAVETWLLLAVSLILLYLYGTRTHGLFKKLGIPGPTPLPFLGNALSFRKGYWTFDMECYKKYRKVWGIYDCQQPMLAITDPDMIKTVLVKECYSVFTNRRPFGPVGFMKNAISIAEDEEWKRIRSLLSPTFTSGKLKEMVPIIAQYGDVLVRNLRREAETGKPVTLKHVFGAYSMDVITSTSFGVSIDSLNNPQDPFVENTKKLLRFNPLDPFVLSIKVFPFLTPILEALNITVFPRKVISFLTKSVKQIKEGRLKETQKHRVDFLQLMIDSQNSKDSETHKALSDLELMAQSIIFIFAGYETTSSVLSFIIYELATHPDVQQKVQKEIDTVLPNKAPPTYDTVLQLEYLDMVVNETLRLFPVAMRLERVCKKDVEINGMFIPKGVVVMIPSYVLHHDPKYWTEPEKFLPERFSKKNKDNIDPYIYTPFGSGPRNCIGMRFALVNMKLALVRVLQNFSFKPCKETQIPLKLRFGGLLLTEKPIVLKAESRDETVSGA
# Method in brief: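 Enzyme-substrate mix + cpd (DMSO), 10 min RT; + NADPH regen system, 1 h RT; + luciferin detection reagent, 20 min RT; luminescence read. Proluciferin substrate, P450-Glo format, 1536-well qHTS.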
# [2] = Viability qHTS for spleen associated tyrosine kinase inhibitor (SYKi) naive MV4-11 cells (AID 1963823); settings: MV4-11 AML viability, CellTiter-Glo luminescence, 72 h; viability (% of control): at 45 µM (top of the series); note: nearly all actives have a fitted effect of over 40% in size; note: potency is the fitted concentration of half-maximal effect
# Method in brief: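 Luminescence from CellTiter-Glo, developed 10 min at room temperature, gave viability of MV4-11 cells never exposed to SYK inhibitor. Cells (500/well) had been incubated with compounds for 72 hr under standard culture conditions.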
# [3] = Viability qHTS for spleen associated tyrosine kinase inhibitor (SYKi) drug resistant MV4-11 cells (AID 1963824); settings: SYKi-resistant MV4-11 viability, CellTiter-Glo, 72 h; series mostly up to 45 µM; note: nearly all actives have a fitted effect of over 35% in size; note: potency is the fitted concentration of half-maximal effect
# Method in brief: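 SYK inhibitor-resistant MV4-11 AML cells, 500 per well, added to predispensed compounds and incubated 72 hr at 37 C, 5% CO2. Viability measured by CellTiter-Glo luminescence after 10 min at room temperature.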
# [4] = Cellular viability qHTS for adrenocortical cancer (ACC) cell line SW-13 (AID 1963989); settings: SW-13 ACC cells viability, CellTiter-Glo, 48 h; activity (max response): stronger effect = lower value; note: nearly all actives have a fitted effect of over 65% in size; note: potency is the fitted concentration of half-maximal effect;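 for activity (max response): cells grown in serum-free medium with ITS supplement; % is set by controls: 0 for no effect and ±100 for the full control effect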
# Method in brief: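 Luminescent ATP read-out (CellTiter-Glo, 20 min at room temperature) measured metabolically competent SW-13 cells after 48 h compound treatment. Final concentrations spanned up to 46 uM; bortezomib served as positive control.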
# [5] = Quantitative highthroughput screen to assess conditional lethalithy of SEM cells grown in RPMI1640 with unreated serum (RPMI+s) (AID 1963883); settings: SEM B-ALL cells, CellTiter-Glo viability, 48 h; viability: at 45.8 µM (top of the series);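 note: 100% = DMSO wells and 0% = empty wells without cells; nearly all actives have a fitted effect of over 35% in size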
# Method in brief: (§1)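 Each medium arm—HPLM with 10% dialyzed FBS, or RPMI1640 with 5 mM glucose and 10% untreated or dialyzed FBS—was screened against an 11-point, 3-fold compound titration for 48 h at 37 °C, with CellTiter-Glo luminescence as endpoint.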
# [6] = Quantitative highthroughput screen to assess conditional lethalithy of SEM cells grown in RPMI1640 with dialyzed fetal bovine serum (RPMI+ds) (AID 1963884); settings: SEM B-ALL cells, RPMI+dialyzed FBS, CellTiter-Glo viability, 48 h; viability: at 45.8 µM (top of the series); note: nearly all actives have a fitted effect of over 35% in size; note: potency is the fitted concentration of half-maximal effect;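 for Viability: 100% = DMSO control wells and 0% = empty wells without cells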
# Method in brief: as §1
# [7] = Cellular viability qHTS for adrenocortical cancer (ACC) cell line NCI-H295R (AID 1963990); settings: CellTiter-Glo ATP luminescence, 48 h; activity change, negative = viability loss: at 46.1 µM (top of the series); note: nearly all actives have a fitted effect of over 60% in size; note: potency is the fitted concentration of half-maximal effect;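 for activity change, negative = viability loss: 0% = DMSO only wells and -100% = full killing with cytotoxic reference compound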
# Method in brief: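 IC50 and maximal efficacy derive from four-parameter logistic modelling of titration curves, with reads scaled between DMSO-only wells (0%) and doxorubicin hydrochloride (100% inhibition). Compounds spanned up to 46 uM over 48 h.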
# [8] = Quantitative highthroughput screen to assess conditional lethalithy of SEM cells grown in Human Plasma-Like Medium with dialyzed fetal bovine serum (HPLM+ds) (AID 1963882); settings: SEM B-ALL cells in HPLM+ds, CellTiter-Glo viability, 48 h; series mostly up to 45.8 µM; note: nearly all actives have a fitted effect of over 35% in size; note: potency is the fitted concentration of half-maximal effect
# Method in brief: as §1
# [9] = Quantitative highthroughput screen to assess conditional lethalithy of P12 Ichikawa cells grown in RPMI1640 with dialyzed fetal bovine serum (RPMI+ds) (AID 1963880); settings: ATP luminescence, 48 h; Potency: P12-Ichikawa viability; series mostly up to 45.8 µM; note: nearly all actives have a fitted effect of over 35% in size; note: potency is the fitted concentration of half-maximal effect;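 for Viability: 100% = DMSO wells and 0% = empty wells on each plate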
# Method in brief: as §1
# [10] = Quantitative highthroughput screen to assess conditional lethalithy of P12 Ichikawa cells grown in RPMI1640 with untreated serum (RPMI+s) (AID 1963881); settings: ATP luminescence, 48 h; Potency: viability; series mostly up to 45.8 µM
# Method in brief: as §1
# Tags give direction and shape of the fitted curve.
compound,measurement,setting,value
O=S(=O)(O)c1cc(I)c(O)c2ncccc12,Potency,[1],"inconclusive: 24.5 µM [inhibitor, single point]"
same,Potency,[2],active: 15 nM
same,Potency,[3],inactive
same,activity (max response),[4],inactive: 0.547%
Nc1nc(Nc2ccc3c(c2)CC[C@@H](N2CCCC2)CC3)nn1-c1cc2c(nn1)-c1ccccc1CCC2,Potency,[1],"inconclusive: 21.3 µM [inhibitor, partial curve, poor fit]"
same,Potency,[2],"inconclusive: 263 nM [cytotoxic, full curve]"
same,Potency,[3],active: 0.417 µM
same,Potency,[4],active: 14.1 µM
NS(=O)(=O)c1ccc(N2CCCCS2(=O)=O)cc1,Potency,[1],inactive
same,Potency,[2],"inconclusive: 1.5 nM [rising, full curve, poor fit]"
same,Potency,[3],inactive
same,activity (max response),[4],inactive: 16.4%
Nc1ccn(C2CO[C@H](CO)O2)c(=O)n1 (stereo partly specified),Potency,[1],inactive
same,Potency,[2],"inconclusive: 23700 nM [cytotoxic, single point]"
same,Potency,[3],"inconclusive: 13.3 µM [cytotoxic, partial curve, poor fit]"
same,Potency,[5],inactive
same,Potency,[6],inactive
same,Potency,[4],"inconclusive: 29.1 µM [cytotoxic, single point]"
same,Potency,[7],"inconclusive: 7.31 µM [cytotoxic, partial curve]"
COc1ccc(C2(C#N)CCC(C(=O)O)CC2)cc1OC1CCCC1 (stereo unspecified),Potency,[1],inactive
same,Potency,[2],inactive
same,Potency,[3],"inactive and inconclusive: 6.61 µM [cytotoxic, full curve, poor fit]"
same,Potency,[8],inactive
same,Potency,[6],inactive
same,Potency,[7],inactive
O=c1[nH]c(-c2ccc(C(F)(F)F)cc2)nc2c1CSCC2,Potency,[1],inactive
same,Potency,[2],"inconclusive: 3.26 µM [cytotoxic, partial curve, poor fit] and active: 2.35 µM"
same,Potency,[3],"inconclusive: 6.61 µM [cytotoxic, full curve]"
same,Potency,[9],inactive
same,Potency,[5],inactive
C[C@]12CC[C@@H]3c4ccc(O)cc4C[C@@H](CCCCCCCCCS(=O)CCCC(F)(F)C(F)(F)F)[C@H]3[C@@H]1CC[C@@H]2O (stereo partly specified),Potency,[1],"inconclusive: 1.74 µM [inhibitor, full curve]"
same,Potency,[2],inactive
same,Potency,[3],inactive
same,activity (max response),[4],inactive: -10.5%
Cc1c(C)n(CCN(C)C)c2ccc(C(=O)OCCN(C)C)cc12,Potency,[1],inactive
same,Potency,[2],"inconclusive: 33500 nM [cytotoxic, single point]"
same,Potency,[3],"inconclusive: 33.5 µM [cytotoxic, single point]"
same,Potency,[4],"inconclusive: 23.1 µM [cytotoxic, single point]"
same,Potency,[7],"inconclusive: 32.6 µM [cytotoxic, single point]"
Cc1nc(C(=O)NCC(=O)O)c(O)c2ccc(Oc3ccccc3)cc12,Potency,[1],"inconclusive: 17.8 µM [inhibitor, partial curve, poor fit]"
same,Potency,[2],"inconclusive: 231 nM [cytotoxic, full curve, poor fit]"
same,Potency,[3],"inconclusive: 5.17 µM [cytotoxic, full curve] and inactive"
same,Potency,[8],inactive
same,Potency,[6],inactive
same,activity (max response),[4],inactive: 0.299%
same,Potency,[7],"inconclusive: 25.1 µM [cytotoxic, single point]"
CC#C[C@@H](CC(=O)O)c1ccc(OCc2cccc(-c3ccc(C(F)(F)F)cc3)c2)cc1,Potency,[1],"inconclusive: 10 µM [inhibitor, partial curve, poor fit]"
same,Potency,[2],active: 18600 nM
same,Potency,[3],active: 16.6 µM
same,Potency,[4],"inconclusive: 28.2 µM [cytotoxic, single point]"
Cc1ccc(C(=O)Nc2ccc(Oc3cc4cnn(C)c4cc3-c3cn[nH]c3)c(F)c2)c(=O)n1-c1ccc(F)cc1,Potency,[1],"inconclusive: 5.62 µM [inhibitor, full curve, poor fit]"
same,Potency,[2],"inconclusive: 9.2 nM [cytotoxic, full curve, poor fit] and inconclusive: 3.3 nM [cytotoxic, full curve]"
same,Potency,[3],"inconclusive: 0.0092 µM [cytotoxic, full curve]"
same,Potency,[9],active: 7.41 µM
same,Potency,[7],"inconclusive: 3.98 µM [cytotoxic, full curve, poor fit]"
CN1CCN(c2cc3c(cc2F)c(=O)c(C(=O)O)cn3-c2ccc(F)cc2)CC1,Potency,[1],inactive
same,Potency,[2],"inconclusive: 3760 nM [rising, partial curve, poor fit]"
same,Potency,[3],"inconclusive: 0.0017 µM [rising, full curve, poor fit]"
same,Potency,[4],"inconclusive: 20.6 µM [cytotoxic, single point]"
same,Potency,[7],"inconclusive: 9.2 µM [cytotoxic, partial curve, poor fit]"
CC(C(=O)O)c1ccc(/C=C2\CCCCC2=O)cc1 (stereo unspecified),Potency,[1],"inconclusive: 38.9 µM [inhibitor, partial curve, poor fit]"
same,Potency,[2],inactive
same,Potency,[3],"inconclusive: 20.6 µM [cytotoxic, single point]"
same,activity (max response),[4],inactive: 8.31%
CS(=O)(=O)c1ccc(-c2cn3ccccc3n2)cc1,Potency,[1],"inconclusive: 5.49 µM [inhibitor, full curve, poor fit]"
same,Potency,[2],"inconclusive: 3.8 nM [rising, full curve, poor fit]"
same,Potency,[3],inactive
same,Potency,[4],"inconclusive: 20.6 µM [cytotoxic, single point]"
same,Potency,[7],"inconclusive: 29.1 µM [cytotoxic, single point]"
COc1ccc(Cc2cnc(N)nc2N)cc1OC,Potency,[1],"inconclusive: 21.9 µM [inhibitor, partial curve, poor fit]"
same,Potency,[2],inactive
same,Potency,[3],inactive
same,activity (max response),[4],inactive: 8.41%
CC(C)OC(=O)C(C)(C)Oc1ccc(C(=O)c2ccc(Cl)cc2)cc1,Potency,[1],"inconclusive: 27.5 µM [inhibitor, partial curve, poor fit]"
same,Potency,[2],inactive
same,Potency,[3],"inconclusive: 33.5 µM [cytotoxic, single point] and inactive"
same,Potency,[8],"inconclusive: 11.8 µM [cytotoxic, single point]"
same,Potency,[6],"inconclusive: 11.8 µM [cytotoxic, single point]"
same,Potency,[4],"inconclusive: 18.4 µM [cytotoxic, single point] and inconclusive: 28.2 µM [cytotoxic, single point]"
same,Potency,[7],"inconclusive: 2.06 µM [cytotoxic, partial curve, poor fit]"
O=C(O)c1cc(=O)[nH]c(=O)[nH]1,Potency,[1],"inconclusive: 1.74 µM [inhibitor, full curve, poor fit] and inconclusive: 21.3 µM [inhibitor, single point]"
same,Potency,[2],"inconclusive: 15 µM [cytotoxic, partial curve] and inactive"
same,Potency,[3],"inconclusive: 10.6 µM [cytotoxic, partial curve]"
same,Potency,[9],inactive
same,Potency,[10],inactive
same,Potency,[5],inactive
same,Potency,[4],"inconclusive: 25.9 µM [cytotoxic, single point]"
C[C@]12CC[C@@H]3c4ccc(O)cc4CC[C@H]3[C@@H]1C[C@@H](O)[C@@H]2O,Potency,[1],"inconclusive: 4.36 µM [inhibitor, single point]"
same,Potency,[2],"inconclusive: 13.3 µM [cytotoxic, partial curve] and inconclusive: 26.3 µM [cytotoxic, single point]"
same,Potency,[3],"inconclusive: 15 µM [cytotoxic, partial curve, poor fit] and inconclusive: 23.5 µM [cytotoxic, single point]"
same,Potency,[4],"inconclusive: 35.5 µM [cytotoxic, partial curve, poor fit]"
same,Potency,[7],"inconclusive: 23.1 µM [cytotoxic, single point]"
Cc1oncc1C(=O)Nc1ccc(C(F)(F)F)cc1,Potency,[1],"inconclusive: 17.4 µM [inhibitor, partial curve, poor fit]"
same,Potency,[2],"inconclusive: 18.8 µM [cytotoxic, partial curve] and inconclusive: 20.9 µM [cytotoxic, partial curve] and inconclusive: 13 µM [cytotoxic, partial curve]"
same,Potency,[3],"inconclusive: 10.6 µM [cytotoxic, partial curve] and inconclusive: 13.2 µM [cytotoxic, partial curve] and inconclusive: 6.51 µM [cytotoxic, partial curve]"
same,Potency,[9],"inconclusive: 29.6 µM [cytotoxic, partial curve, poor fit]"
same,Potency,[8],inactive
same,Potency,[6],"inconclusive: 37.2 µM [cytotoxic, single point]"
Cc1c(F)cc(C(=O)NC2CC2)cc1-c1ccc(C(=O)NCC(C)(C)C)cn1,Potency,[1],"inconclusive: 8.91 µM [inhibitor, partial curve]"
same,Potency,[2],"inconclusive: 20.9 µM [cytotoxic, partial curve, poor fit] and active: 164 nM"
same,Potency,[3],"inconclusive: 16.6 µM [cytotoxic, partial curve]"
same,activity (max response),[4],inactive: 1.4%
O=C1NCN(c2ccccc2)C12CCN(CCCC(c1ccc(F)cc1)c1ccc(F)cc1)CC2,Potency,[1],"inconclusive: 3.47 µM [inhibitor, full curve]"
same,Potency,[2],"inconclusive: 2660 nM [cytotoxic, full curve, poor fit]"
same,Potency,[3],"inconclusive: 4.73 µM [cytotoxic, full curve]"
same,Potency,[4],"inconclusive: 9.2 µM [cytotoxic, single point]"
CNC1CCCN(c2c(F)cc3c(=O)c(C(=O)O)cn(C4CC4)c3c2OC)C1 (stereo unspecified),Potency,[1],inactive
same,Potency,[2],"inactive and inconclusive: 16.6 µM [cytotoxic, partial curve, poor fit]"
same,Potency,[3],"inconclusive: 33.2 µM [cytotoxic, single point]"
same,Potency,[8],inactive
same,Potency,[5],inactive
